From US20260176320A1, “MODULATORS OF G-PROTEIN COUPLED RECEPTORS” (priority 2018, published 2026)
Read-outs that look alike come from different tables or passages of the source. At least one compound was matched to its structure with a doubt left.

Assays:
Type in all cases: cell-based
[1] = target: T1, GLP-1R (Homo sapiens, UniProt P43220); assay: HitHunter cAMP assay (GLP-1R)
Method: (§1) Suspension cells were harvested and resuspended in 1×HBSS (+10 mM HEPES, 625 μM IBMX, 0.2% BSA) according to the following procedure: 5 μL of 2× cell suspension+1× antibody were added to each well, where the optimal cell density was 10,000 cells per well in a low volume 384-well plate. Agonist serial dilutions in a separate 384 well dilution plate in a 22-point series of 2× dilutions of agonist in DMSO were performed as follows. 80 μL of the highest concentration of Agonist/DMSO was added to well No. 1. 40 μL was removed from well No. 1 and added it to well No. 2, followed by gentle mixing. […] This process was repeated until well No. 22. Additional serial dilutions for additional agonists were set up in a similar manner. 50 nL of each 2× agonist serial dilution was added in duplicate to the designated agonist rows of the assay plate using the Labcyte ECHO. Assay plate was incubated for 30 minutes at room temperature. Following agonist incubation, 5 μL of cAMP Antibody Reagent was added to all wells. […] Plates were spun down briefly. Assay plate was incubated for 1 hour at room temperature in the dark for the immunocompetition reaction to occur. […] Plates were spun down briefly. Assay plate was incubated O/N at room temperature in the dark. Samples were read on Tecan i-control plate reader using luminescence mode with 300 ms integration time. Data analysis was performed using GraphPad Prism.

[2] = target: T2, GIP-R (Homo sapiens, UniProt P48546); assay: HitHunter cAMP assay (GIP-R)
T2 sequence (P48546 22-466): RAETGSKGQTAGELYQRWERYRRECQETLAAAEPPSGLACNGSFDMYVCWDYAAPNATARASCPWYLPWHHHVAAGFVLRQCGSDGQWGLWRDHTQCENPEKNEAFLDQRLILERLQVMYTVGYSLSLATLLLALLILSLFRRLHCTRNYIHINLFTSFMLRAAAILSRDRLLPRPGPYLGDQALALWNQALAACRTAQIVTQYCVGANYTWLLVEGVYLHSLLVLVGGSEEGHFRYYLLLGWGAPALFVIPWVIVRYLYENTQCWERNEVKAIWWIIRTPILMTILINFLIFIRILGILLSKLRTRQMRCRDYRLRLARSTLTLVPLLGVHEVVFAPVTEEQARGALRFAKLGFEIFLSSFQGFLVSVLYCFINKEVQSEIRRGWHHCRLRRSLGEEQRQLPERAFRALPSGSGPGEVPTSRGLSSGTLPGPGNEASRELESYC
Method: as §1

[3] = target: T1, GLP-1R; assay: PathHunter β-arrestin assay; settings: read-out: β-arrestin activity EC50
Method: The effects of the chemical entities described herein on β-arrestin signaling and associated downstream processes (e.g., those delineated above) can be assessed using conventional methods, e.g., PathHunter β-arrestin Assay for determining β-arresting coupling (see Examples section). […] It has been shown that b-arrestin coupling is a key strep in receptor internalization and subsequent de-sensitization and attenuation of signaling.
5,000 cells were seeded in appropriate cell culture media per well in a low volume 384-well tissue culture plate. The assay plate was incubated with cells overnight at 37° C. and 5% CO2. The media was removed, and 5 μL of appropriate cell culture media containing 0.2% BSA was added. Agonist serial dilutions in a separate 384 well dilution plate in a 22-point series of 2× dilutions of agonist in DMSO were performed as follows. 80 μL of the highest concentration of Agonist/DMSO was added to well No. 1. 40 μL was removed from well No. 1, and added to well No. 2, followed by gentle mixing. […] This process was repeated until well No. 22. Additional serial dilutions for additional agonists were set up in a similar manner. 100 nL of each 2× agonist serial dilution was added in duplicate to the designated agonist rows of the assay plate using the Labcyte ECHO. Assay plate was incubated for 90 minutes at 37° C. and 5% CO2. A stock of Working Detection Solution in a separate 15 ml polypropylene tube was prepared by mixing 19 parts of Cell Assay Buffer, 5 parts of Substrate Reagent 1, 1 part Substrate Reagent 2. […] Plates were spun down briefly. Assay plate was incubated for 3 hour at room temperature in the dark for the immunocompetition reaction to occur. Samples were read on Tecan i-control plate reader using luminescence mode with 100 ms integration time. Data analysis was performed using GraphPad Prism.

[4] = Table 3, read-out: EC50 GLP-1R/nM
[5] = Table 3A, read-out: EC50 GLP-1R/nM
[6] = Table 3, read-out: EC50 GIP-R/nM
[7] = Table 3A, read-out: EC50 GIP-R/nM
[8] = read-out: EC50 GLP-1R/nM, Table 3A
[9] = read-out: EC50 GIP-R/nM, Table 3A

T1 sequence (P43220 24-463): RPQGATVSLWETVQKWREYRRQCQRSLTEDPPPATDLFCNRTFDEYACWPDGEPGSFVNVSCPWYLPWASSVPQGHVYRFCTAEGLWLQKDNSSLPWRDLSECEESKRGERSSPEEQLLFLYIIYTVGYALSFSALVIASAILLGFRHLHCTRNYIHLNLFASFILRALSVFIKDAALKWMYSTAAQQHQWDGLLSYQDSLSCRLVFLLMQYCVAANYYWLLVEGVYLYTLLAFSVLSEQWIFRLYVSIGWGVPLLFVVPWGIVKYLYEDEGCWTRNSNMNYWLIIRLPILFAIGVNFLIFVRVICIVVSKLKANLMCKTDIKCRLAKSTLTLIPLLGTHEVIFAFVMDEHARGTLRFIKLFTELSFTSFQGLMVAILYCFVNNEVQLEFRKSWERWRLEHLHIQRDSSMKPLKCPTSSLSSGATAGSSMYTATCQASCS

Row | Compound | EC50 [1, 4] [nM] | EC50 [1, 5] [nM] | EC50 [2, 6] [nM] | EC50 [2, 7] [nM] | EC50 [3] [nM] | EC50 [1, 8] [nM] | EC50 [2, 9] [nM] | EC50 ([1]; read-out: EC50 GLP-1R/nM, Table 3) [nM] | EC50 ([2]; read-out: EC50 GIP-R/nM, Table 3) [nM]
1 | CCCCCCCCCCCCCCCC(=O)N[C@@H](CCC(=O)NCCCC[C@H](NC(=O)[C@H](CO)NC(=O)[C@@H]1CCCN1C(=O)[C@@H]1CCCN1C(=O)[C@@H]1CCCN1C(=O)[C@H](C)NC(=O)CNC(=O)[C@H](CO)NC(=O)[C@H](CO)NC(=O)[C@@H]1CCCN1C(=O)CNC(=O)CNC(=O)[C@H](C)NC(=O)[C@H](CC(C)C)NC(=O)[C@H](CC(C)C)NC(=O)[C@H](Cc1c[nH]c2ccccc12)NC(=O)[C@H](CC(N)=O)NC(=O)[C@@H](NC(=O)[C@H](Cc1ccccc1)NC(=O)[C@H](CCC(=O)O)NC(=O)C(C)(C)NC(=O)[C@H](C)NC(=O)[C@H](C)NC(=O)[C@H](CCC(N)=O)NC(=O)[C@H](CCCCN)NC(=O)[C@H](CC(=O)O)NC(=O)[C@H](CC(C)C)NC(=O)[C@H](Cc1ccc(O)cc1)NC(=O)[C@@H](NC(=O)[C@H](CO)NC(=O)[C@H](Cc1ccc(O)cc1)NC(=O)[C@H](CC(=O)O)NC(=O)[C@H](CO)NC(=O)[C@@H](NC(=O)[C@H](Cc1ccccc1)NC(=O)[C@@H](NC(=O)CNC(=O)[C@H](CCC(=O)O)NC(=O)CSCC(=O)NCCN1C(=O)CC[C@@H]1C)[C@@H](C)O)[C@@H](C)O)[C@@H](C)CC)C(C)C)C(N)=O)C(=O)O (single isomer, unassigned) [Compound 75] | 1 to 10 | 0.1 to 1 | 1 to 10 | 1 to 10 | > 1000 |  |  |  | 
2 | CCCCCCCCCCCCCCCC(=O)N[C@@H](CCC(=O)NCCCC[C@H](NC(=O)[C@H](CO)NC(=O)[C@@H]1CCCN1C(=O)[C@@H]1CCCN1C(=O)[C@@H]1CCCN1C(=O)[C@H](C)NC(=O)CNC(=O)[C@H](CO)NC(=O)[C@H](CO)NC(=O)[C@@H]1CCCN1C(=O)CNC(=O)CNC(=O)[C@H](C)NC(=O)[C@H](CC(C)C)NC(=O)[C@H](CC(C)C)NC(=O)[C@H](Cc1c[nH]c2ccccc12)NC(=O)[C@H](CC(N)=O)NC(=O)[C@@H](NC(=O)[C@H](Cc1ccccc1)NC(=O)[C@H](CCC(=O)O)NC(=O)C(C)(C)NC(=O)[C@H](C)NC(=O)[C@H](C)NC(=O)[C@H](CCC(N)=O)NC(=O)[C@H](CCCCN)NC(=O)[C@H](CC(=O)O)NC(=O)[C@H](CC(C)C)NC(=O)[C@H](Cc1ccc(O)cc1)NC(=O)[C@@H](NC(=O)[C@H](CO)NC(=O)[C@H](Cc1ccc(O)cc1)NC(=O)[C@H](CC(=O)O)NC(=O)[C@H](CO)NC(=O)[C@@H](NC(=O)[C@H](Cc1ccccc1)NC(=O)[C@@H](NC(=O)CNC(=O)[C@H](CCC(=O)O)NC(=O)CSCC(=O)NCCN1CCC[C@H](C)C1=O)[C@@H](C)O)[C@@H](C)O)[C@@H](C)CC)C(C)C)C(N)=O)C(=O)O (single isomer, unassigned) [Compound 207] |  |  |  |  | > 1000 | 0.1 to 1 | 1 to 10 |  | 
3 | CCCCCCCCCCCCCCCC(=O)N[C@@H](CCC(=O)NCCCC[C@H](NC(=O)[C@H](CO)NC(=O)[C@@H]1CCCN1C(=O)[C@@H]1CCCN1C(=O)[C@@H]1CCCN1C(=O)[C@H](C)NC(=O)CNC(=O)[C@H](CO)NC(=O)[C@H](CO)NC(=O)[C@@H]1CCCN1C(=O)CNC(=O)CNC(=O)[C@H](C)NC(=O)[C@H](CC(C)C)NC(=O)[C@H](CC(C)C)NC(=O)[C@H](Cc1c[nH]c2ccccc12)NC(=O)[C@H](CC(N)=O)NC(=O)[C@@H](NC(=O)[C@H](Cc1ccccc1)NC(=O)[C@H](CCC(=O)O)NC(=O)C(C)(C)NC(=O)[C@H](C)NC(=O)[C@H](C)NC(=O)[C@H](CCC(N)=O)NC(=O)[C@H](CCCCN)NC(=O)[C@H](CC(=O)O)NC(=O)[C@H](CC(C)C)NC(=O)[C@H](Cc1ccc(O)cc1)NC(=O)[C@@H](NC(=O)[C@H](CO)NC(=O)[C@H](Cc1ccc(O)cc1)NC(=O)[C@H](CC(=O)O)NC(=O)[C@H](CO)NC(=O)[C@@H](NC(=O)[C@H](Cc1ccccc1)NC(=O)[C@@H](NC(=O)CNC(=O)[C@H](CCC(=O)O)NC(=O)CSCC(=O)NCCN1C[C@H](C)CC1=O)[C@@H](C)O)[C@@H](C)O)[C@@H](C)CC)C(C)C)C(N)=O)C(=O)O (single isomer, unassigned) [Compound 28] | 0.1 to 1 | 0.1 to 1 | 1 to 10 | 1 to 10 | > 1000 |  |  |  | 
4 | CCCCCCCCCCCCCCCC(=O)N[C@@H](CCC(=O)NCCCC[C@H](NC(=O)[C@H](CO)NC(=O)[C@@H]1CCCN1C(=O)[C@@H]1CCCN1C(=O)[C@@H]1CCCN1C(=O)[C@H](C)NC(=O)CNC(=O)[C@H](CO)NC(=O)[C@H](CO)NC(=O)[C@@H]1CCCN1C(=O)CNC(=O)CNC(=O)[C@H](C)NC(=O)[C@H](CC(C)C)NC(=O)[C@H](CC(C)C)NC(=O)[C@H](Cc1c[nH]c2ccccc12)NC(=O)[C@H](CC(N)=O)NC(=O)[C@@H](NC(=O)[C@H](Cc1ccccc1)NC(=O)[C@H](CCC(=O)O)NC(=O)C(C)(C)NC(=O)[C@H](C)NC(=O)[C@H](C)NC(=O)[C@H](CCC(N)=O)NC(=O)[C@H](CCCCN)NC(=O)[C@H](CC(=O)O)NC(=O)[C@H](CC(C)C)NC(=O)[C@H](Cc1ccc(O)cc1)NC(=O)[C@@H](NC(=O)[C@H](CO)NC(=O)[C@H](Cc1ccc(O)cc1)NC(=O)[C@H](CC(=O)O)NC(=O)[C@H](CO)NC(=O)[C@@H](NC(=O)[C@H](Cc1ccccc1)NC(=O)[C@@H](NC(=O)CNC(=O)[C@H](CCC(=O)O)NC(=O)CSCC(=O)NCCN1C(=O)CC[C@H]1C)[C@@H](C)O)[C@@H](C)O)[C@@H](C)CC)C(C)C)C(N)=O)C(=O)O (single isomer, unassigned) [Compound 74] | 0.1 to 1 | 0.1 to 1 | 1 to 10 | 1 to 10 | > 1000 |  |  |  | 
5 | CCCCCCCCCCCCCCCC(=O)N[C@@H](CCC(=O)NCCCC[C@H](NC(=O)[C@H](CO)NC(=O)[C@@H]1CCCN1C(=O)[C@@H]1CCCN1C(=O)[C@@H]1CCCN1C(=O)[C@H](C)NC(=O)CNC(=O)[C@H](CO)NC(=O)[C@H](CO)NC(=O)[C@@H]1CCCN1C(=O)CNC(=O)CNC(=O)[C@H](C)NC(=O)[C@H](CC(C)C)NC(=O)[C@H](CC(C)C)NC(=O)[C@H](Cc1c[nH]c2ccccc12)NC(=O)[C@H](CC(N)=O)NC(=O)[C@@H](NC(=O)[C@H](Cc1ccccc1)NC(=O)[C@H](CCC(=O)O)NC(=O)C(C)(C)NC(=O)[C@H](C)NC(=O)[C@H](C)NC(=O)[C@H](CCC(N)=O)NC(=O)[C@H](CCCCN)NC(=O)[C@H](CC(=O)O)NC(=O)[C@H](CC(C)C)NC(=O)[C@H](Cc1ccc(O)cc1)NC(=O)[C@@H](NC(=O)[C@H](CO)NC(=O)[C@H](Cc1ccc(O)cc1)NC(=O)[C@H](CC(=O)O)NC(=O)[C@H](CO)NC(=O)[C@@H](NC(=O)[C@H](Cc1ccccc1)NC(=O)[C@@H](NC(=O)CNC(=O)[C@H](CCC(=O)O)NC(=O)CSCC(=O)NCCN1C(=O)C[C@@H](CC)C1=O)[C@@H](C)O)[C@@H](C)O)[C@@H](C)CC)C(C)C)C(N)=O)C(=O)O (single isomer, unassigned) [Compound 61] |  |  |  |  |  | 1 to 10 | 1 to 10 | 1 to 10 | 1 to 10
